Results as given in the supplement of paper PMC6746778.
The list shows a part of the results. Most values come without repeats; read them as rough.

Legend:
Experiment in all cases: proliferation Z-score within cell line (SRB, relative to all inhibitors screened on that line); triple-negative breast cancer lines and a kinase inhibitor library; SRB is the sulforhodamine B protein stain; higher = less growth inhibition (more resistant)
Conditions in all cases: concentration: 1 µM; 4 days
Bt20 = tested on: Bt20
Bt549 = tested on: Bt549
HCC1143 = tested on: HCC1143
HCC1806 = tested on: HCC1806
HCC1937 = tested on: HCC1937
HCC38 = tested on: HCC38
HCC70 = tested on: HCC70
Hs578T = tested on: Hs578T
MDA-MB-231 = tested on: MDA-MB-231
MDA-MB-435s = tested on: MDA-MB-435s
MDA-MB-436 = tested on: MDA-MB-436
MDA-MB-453 = tested on: MDA-MB-453
MDA-MB-468 = tested on: MDA-MB-468
SKBR7 = tested on: SKBR7
SUM1315MO2 = tested on: SUM1315MO2
SUM149PT = tested on: SUM149PT
SUM159PT = tested on: SUM159PT
SUM185PE = tested on: SUM185PE
SUM229PE = tested on: SUM229PE
SUM52PE = tested on: SUM52PE
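Also: Single-dose primary screen of a 378-member kinase inhibitor library in 96-well plates, with growth read as absorbance of protein-bound SRB dye after TCA fixation.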

| Compound | proliferation Z-score within cell line (Bt20) | proliferation Z-score within cell line (Bt549) | proliferation Z-score within cell line (HCC1143) | proliferation Z-score within cell line (HCC1806) | proliferation Z-score within cell line (HCC1937) | proliferation Z-score within cell line (HCC38) | proliferation Z-score within cell line (HCC70) | proliferation Z-score within cell line (Hs578T) | proliferation Z-score within cell line (MDA-MB-231) | proliferation Z-score within cell line (MDA-MB-435s) | proliferation Z-score within cell line (MDA-MB-436) | proliferation Z-score within cell line (MDA-MB-453) | proliferation Z-score within cell line (MDA-MB-468) | proliferation Z-score within cell line (SKBR7) | proliferation Z-score within cell line (SUM1315MO2) | proliferation Z-score within cell line (SUM149PT) | proliferation Z-score within cell line (SUM159PT) | proliferation Z-score within cell line (SUM185PE) | proliferation Z-score within cell line (SUM229PE) | proliferation Z-score within cell line (SUM52PE) |
| --- | --- | --- | --- | --- | --- | --- | --- | --- | --- | --- | --- | --- | --- | --- | --- | --- | --- | --- | --- | --- |
| CO[C@@H](C(=O)N1Cc2[nH]nc(NC(=O)c3ccc(N4CCN(C)CC4)cc3)c2C1)c1ccccc1 | -0.892 | -1.47 | 0.68 | -0.0957 | 0.111 | -1.14 | 0.622 | -0.618 | -1.47 | -0.548 | 0.937 | -1.05 | -1.39 | -1.08 | -1.97 | -0.55 | 0.577 | -1.94 | -0.1 | -1.41 |
| O=c1c(O)c(-c2ccc(O)c(O)c2)oc2cc(O)cc(O)c12 [Quercetin] | 0.0438 | 0.55 | 0.457 | 0.906 | 0.495 | 0.204 | 0.343 | 0.421 | 0.535 | 0.4 | 0.0179 | 0.419 | 0.291 | -0.151 | 0.183 | -0.331 | 0.148 | -0.143 | -0.0342 | 0.402 |
| Cc1cc(Nc2cc(CN3CCOCC3)c3nc(C)c(Cc4ccc(Cl)cc4F)n3n2)n[nH]1 | 0.675 | 0.571 | -0.776 | 0.533 | 0.532 | 0.457 | -1.17 | 0.236 | -0.326 | -0.45 | -0.935 | -0.275 | -1.27 | -0.189 | -0.764 | 0.692 | -1.34 | -0.553 | 0.0857 | -1.39 |
| Nc1ncnc2c1c(-c1cnc3[nH]ccc3c1)nn2C1CCCC1 | -1.11 | -1.24 | -1.24 | -1.06 | -1.59 | -1.67 | -1.06 | -1.8 | -1.38 | -1.16 | -1.47 | -1.34 | -0.515 | -1.36 | -1.84 | -1.51 | -1.28 | -1.29 | -1.57 | -1.23 |
| Nc1nc(N)c2nc(-c3cccc(O)c3)cnc2n1 | 0.593 | 0.193 | 0.494 | -0.071 | 0.399 | 0.0456 | 0.561 | 0.5 | -0.191 | 0.0221 | 0.504 | -1.4 | 0.407 | 0.37 | -0.144 | 0.709 | 0.389 | 0.309 | 0.482 | 0.716 |
| N#Cc1ccc2[nH]c(O)c(-c3ccc(CN4CCOCC4)cn3)c2c1 | -0.00593 | 0.854 | 1.12 | 0.727 | 0.671 | 0.669 | 0.643 | 0.778 | 0.757 | 0.588 | 0.916 | 0.335 | 0.739 | 0.342 | 0.449 | 0.69 | 0.472 | 0.0279 | -0.178 | -0.272 |
| COc1ccc(F)c(F)c1C(=O)c1cnc(NC2CCN(S(C)(=O)=O)CC2)nc1N | -0.365 | -0.747 | -0.776 | -0.00414 | 0.302 | 0.174 | -0.927 | -0.311 | -0.978 | -0.66 | -0.409 | -0.749 | -0.534 | -1.18 | 0.0358 | -0.297 | -1.06 | 0.343 | -0.1 | -0.533 |
| COc1cc(Nc2ncc(F)c(Nc3ccc4c(n3)NC(=O)C(C)(C)O4)n2)cc(OC)c1OC [R406 (free base)] | 0.557 | 0.702 | -2.23 | 0.645 | -0.597 | 0.608 | -0.48 | 0.807 | 0.552 | 0.497 | -0.531 | 0.886 | 0.541 | 0.558 | 0.318 | 0.175 | -0.252 | 0.532 | 0.386 | 0.798 |
| Nc1nc(N)c(N=O)c(OCC2CCCCC2)n1 | 0.618 | 0.602 | 0.525 | 0.915 | 0.57 | 0.446 | 0.459 | 0.53 | 0.597 | 0.585 | 0.678 | 0.955 | 0.95 | 0.982 | 0.448 | 0.586 | 0.382 | 0.322 | 0.497 | 0.591 |
| Cc1nc(NC(=O)N2CCC[C@H]2C(N)=O)sc1-c1ccnc(C(C)(C)C(F)(F)F)c1 | -0.258 | 0.542 | 0.0542 | -0.255 | 0.143 | 0.641 | 0.713 | 0.361 | 0.867 | 0.267 | 0.404 | -1.21 | 0.803 | 0.597 | 0.591 | 0.477 | -0.141 | -1.27 | -0.0757 | 0.664 |
| Cc1ccc(NC(=O)c2ccc(CN3CCN(C)CC3)cc2)cc1Nc1nc(-c2cccnc2)cs1 [Masitinib (AB1010)] | 1.02 | 0.757 | -0.0644 | 0.729 | -1.14 | 0.475 | 0.665 | 0.431 | 0.826 | 1.14 | 1.07 | 0.702 | 0.969 | 0.154 | 0.855 | 0.901 | 0.543 | 1.46 | 1.31 | 1.34 |
| Cn1cc(-c2cnn3c(N)c(Br)c([C@@H]4CCCNC4)nc23)cn1 | 0.734 | 0.186 | 0.126 | -1.12 | 0.0378 | 0.0822 | -0.876 | 0.505 | 0.724 | 0.913 | -0.653 | 0.29 | 0.987 | 0.229 | -0.259 | 0.725 | 0.518 | 0.00537 | -0.0531 | 0.905 |
| CN(C)C/C=C/C(=O)Nc1cc2c(Nc3ccc(F)c(Cl)c3)ncnc2cc1O[C@H]1CCOC1 [Afatinib (BIBW2992)] | 0.0496 | 0.396 | -1.23 | -2.02 | -1.31 | 0.268 | 0.329 | 0.387 | 0.5 | 0.347 | 0.053 | -1.39 | -1.65 | 1 | 0.833 | -0.643 | 0.213 | 1.2 | -0.0253 | 0.728 |
